The values below come from ChEMBL document CHEMBL4888484, “Replenishing the malaria drug discovery pipeline: Screening and hit evaluation of the MMV Hit Generation Library 1 (HGL1) against asexual blood stage Plasmodium falciparum ,using a nano luciferase reporter read-out” (2022).

The whole screen tested about 150,000 compounds, of which about 540 (0.36%) showed an effect of 50% or more. This is one part of the list.

For the test, the system named is Plasmodium falciparum. The test is described as follows: Primary screen in NF54 nanoGlo assay, in single point, at 2uM, 72h; a lower Z score goes with more inhibition. The format is functional, Erythrocyte. Conditions: timepoint 72 hour.

With `COc1ccc(C(=O)N[C@H]2CC[C@@H]3CCC[C@@H]32)o1`, the “% Inhibition” value was 3% and the Z score is listed as -0.39.

For `CC(C)n1cc(S(=O)(=O)Nc2cc(F)ccc2Cl)c2cccnc21`, the “% Inhibition” value is listed as 22% and the Z score was -2.

As for `O=C(NCC1CCC2(CC1)OCCO2)C1CC=CC1`, the “% Inhibition” value is listed as 1% and the Z score is listed as -0.18.

In the case of `CNC(=O)[C@@H]1C[C@H](N)CN1C(=O)c1cc(C)sc1NC(=O)C(C)(C)C`, the “% Inhibition” value is given as -1% and the Z score worked out at 0.12.

`Cc1cc(C)cc(C(=O)N/C(=N\c2ccc3c(c2)OCCO3)NCCc2c(C)nn(C)c2C)c1`: the “% Inhibition” value was 4% and the Z score is on record as -0.83.

On to `C[C@@H](c1cccs1)N(C)CCN1CCOC1=O`, for which the “% Inhibition” value is reported as -10% and the Z score was determined as 1.05.

With `Fc1cc(CCNCc2cccs2)c2c(c1)COCO2`, the “% Inhibition” value is on record as -17% and the Z score came to 2.19.

Consider `O=C(Nc1nc(C2CCOCC2)cs1)NC1CC1C1CCCCC1` (stereo unspecified), for which the “% Inhibition” value is recorded as -3% and the Z score is on record as 0.43.

Regarding `O=C1NCCN(C(=O)c2ccnn2CC(F)F)c2ccccc21`, the “% Inhibition” value is listed as -3% and the Z score came to 0.58.

Consider `Cc1cc(COc2nccc(C(F)(F)F)n2)nc(C)n1`, for which the “% Inhibition” value came to 2% and the Z score is on record as -0.3.

Regarding `O=C(COc1ccccc1)N1C[C@@H]2[C@@H]3CC[C@@H](C3)[C@@H]2C1`, the “% Inhibition” value is on record as -8% and the Z score is given as 1.17.

Consider `CCCCN(CCCC)C[C@H](O)COCc1cccc(OC)c1`, for which the “% Inhibition” value is listed as -12% and the Z score is on record as 1.63.

As for `Cc1nn(C)cc1NC(=O)[C@@H]1CCCCCN1C`, the “% Inhibition” value is reported as -10% and the Z score was 1.85.

As to `O=C1C(=O)N(CN2CCN(Cc3ccccc3F)CC2)c2ccccc21`, the “% Inhibition” value is -25% and the Z score is reported as 2.92.

For the compound `CCOc1ccc(S(=O)(=O)N2CCC(N3C(=O)CNC3=O)CC2)cc1F`, the “% Inhibition” value is given as -2% and the Z score is 0.38.

With `O=C(c1ccc[nH]1)N1CCN(Cc2ccncc2)[C@@H]2CS(=O)(=O)C[C@@H]21`, the “% Inhibition” value was -5% and the Z score is 0.94.

Take `CCN1CCC(NC(=O)c2cccc3ccccc23)CC1`: the “% Inhibition” value was -13% and the Z score was found to be 1.6.

Turning to `COc1cc(C(=O)Nc2nc(C)nn2C)ccc1Cl`, the “% Inhibition” value is reported as -9% and the Z score was 1.22.

Consider `COc1ccc(N2C[C@@H](NC(=O)NCc3ccc4[nH]c5c(c4c3)CCCC5)CC2=O)cc1OC`, for which the “% Inhibition” value came out at 13% and the Z score is -1.68.

On to `COc1cc(C(=O)NC[C@H]2CCCO2)c(N(C)S(C)(=O)=O)cc1OC`, for which the “% Inhibition” value was 7% and the Z score is on record as -1.04.

For `CCOC(=O)N1CCN(C(=O)COc2ccc(C)cn2)CC1`, the “% Inhibition” value is listed as -9% and the Z score is recorded as 1.13.

In the case of `CCOc1cccc2[nH]cc(CC(=O)N[C@H](c3nccn3C)C3CC3)c12`, the “% Inhibition” value was found to be 7% and the Z score is -0.9.

For the compound `CC(C)Oc1ccc(C(=O)NCCn2ccn3nc(-c4cccs4)cc23)cc1`, the “% Inhibition” value is recorded as 2% and the Z score is reported as -0.28.

Turning to `COCCCNC(=O)CN(C)c1cc(Cl)ccc1C#N`, the “% Inhibition” value is recorded as -6% and the Z score was determined as 0.76.

Regarding `Cc1ccc(NC(=O)NCCn2nnc3cc(S(=O)(=O)NC(C)C)ccc32)c(C)c1`, the “% Inhibition” value is reported as -23% and the Z score is 2.3.

Regarding `CCCCOc1ccc(-c2cc3c(N4CCN(Cc5ccc6c(c5)OCO6)CC4)nccn3n2)cc1`, the “% Inhibition” value amounted to 3% and the Z score is recorded as -0.49.

For the compound `CS(=O)(=O)N1CCCCC[C@H]1c1noc(-c2ccccc2)n1`, the “% Inhibition” value is 5% and the Z score is -0.62.

On to `C[C@@H](CN(C)C(=O)c1nc(=O)[nH][nH]1)Oc1ccc(Cl)c(Cl)c1`, for which the “% Inhibition” value is given as -2% and the Z score is listed as 0.19.

As to `CCc1[nH]nc(NCc2cc(Cl)cc(Cl)c2OC)c1C`, the “% Inhibition” value is recorded as -8% and the Z score was found to be 1.42.

Regarding `COc1cccc(C(=O)N2CCC([C@]3(CCC(C)C)NC(=O)N(CCN(C)C)C3=O)CC2)c1OC`, the “% Inhibition” value was -8% and the Z score came out at 1.37.

As for `CN(CCc1cn[nH]c1)c1nc2nonc2nc1N1CCCCCC1`, the “% Inhibition” value is -7% and the Z score worked out at 0.65.

With `C[C@@H]1CN(CCN(C)S(=O)(=O)c2cccnc2)C[C@H](C)O1`, the “% Inhibition” value is listed as -24% and the Z score amounted to 2.77.

Take `COc1cccn(CC(=O)N2CCC(c3nc4ccccc4o3)CC2)c1=O`: the “% Inhibition” value is -8% and the Z score is reported as 0.88.

Take `Cn1nc(CNC(=O)c2ccc(Cl)s2)c2c1CCCC2`: the “% Inhibition” value is listed as -11% and the Z score turned out to be 2.29.

For `O=C(c1ccc2ccccc2n1)N1CCC2(CC1)C[C@@H](N1CCOCC1)CCO2`, the “% Inhibition” value was -6% and the Z score worked out at 0.75.

On to `COc1ccc2c(c1)c1cnn(Cc3cccc(C(F)(F)F)c3)c(=O)c1n2C`, for which the “% Inhibition” value amounted to 2% and the Z score was -0.22.

Turning to `FC(F)(F)[C@@H]1CCC[C@H](C(F)(F)F)N1`, the “% Inhibition” value amounted to 0% and the Z score is -0.05.

As to `O=C(c1ccc(Cl)s1)N1CC[C@H](c2ccc3c(c2)CCO3)C1`, the “% Inhibition” value was 7% and the Z score is -0.87.

For `O=C(NCc1ccc([C@@H](O)c2ccsc2)s1)c1cccc(Cl)c1`, the “% Inhibition” value was -12% and the Z score is recorded as 1.49.

For the compound `CC(C)CN1CCCN(C(=O)C2CC=CC2)CC1`, the “% Inhibition” value is on record as 15% and the Z score is given as -2.01.

Consider `CC(C)CCN(CC1CN(CC(O)COC(C)C)CCO1)C(=O)c1ccccc1` (stereo unspecified), for which the “% Inhibition” value was -12% and the Z score is listed as 1.63.

On to `CS(=O)(=O)CC1(Cn2ccc(C(F)(F)F)n2)CC1`, for which the “% Inhibition” value is on record as -10% and the Z score stood at 1.17.

In the case of `CCc1nn(C)c(CC)c1CC(=O)NS(=O)(=O)CC1CCCC1`, the “% Inhibition” value is given as -2% and the Z score is recorded as 0.26.
